Assay results as given in patent US20160264680A1 (INSERM INSTITUT NATIONAL DE LA SANTE ET DE LA RECHERCHE …, published 2016).
Read-outs that look alike come from different tables or passages of the source.

Tests used:
[1] = molecular target: T1, recombinant soluble human KIT extracellular domain (KIT-ECD), C-terminal 6His tag (human, UniProt P10721 in part, biotinylated in the yeast display assays (sites not given)); test: ELISA, scFv-Fc on coated KIT-ECD
T1 construct: range 26-509; Made in High Five insect cells with a baculovirus, purified on Ni-NTA; major protein of 60 kD; Monovalent; also called c-KIT ECD; recombinant KIT
T1 sequence (P10721 other isoform, or with tags, fused parts or gaps limits assumed): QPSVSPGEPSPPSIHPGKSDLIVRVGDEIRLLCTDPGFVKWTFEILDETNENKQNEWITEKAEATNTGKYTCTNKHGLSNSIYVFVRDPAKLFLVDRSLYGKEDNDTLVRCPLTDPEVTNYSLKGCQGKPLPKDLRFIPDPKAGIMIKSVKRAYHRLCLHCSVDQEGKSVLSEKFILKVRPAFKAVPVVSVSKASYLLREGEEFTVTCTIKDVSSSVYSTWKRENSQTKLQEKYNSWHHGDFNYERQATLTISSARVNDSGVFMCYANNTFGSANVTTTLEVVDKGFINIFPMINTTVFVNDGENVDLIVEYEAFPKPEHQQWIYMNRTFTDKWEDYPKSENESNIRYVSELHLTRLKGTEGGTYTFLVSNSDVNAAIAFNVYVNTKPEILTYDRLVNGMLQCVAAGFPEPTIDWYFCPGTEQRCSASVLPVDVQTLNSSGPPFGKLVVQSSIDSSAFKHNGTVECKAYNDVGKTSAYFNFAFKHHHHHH

[2] = molecular target: T1, recombinant soluble human KIT …; test: ELISA, scFv-Fc on coated KIT-ECD; remark: listed apart in the source
[3] = molecular target: T1, recombinant soluble human KIT …; test: SPR (Biacore 3000), scFv-Fc captured by anti-human Fc, KIT-ECD 20 to 330 nM as analyte
[4] = molecular target: T1, recombinant soluble human KIT …; test: ELISA, bivalent scFv-Fc on monovalent KIT-ECD adsorbed on plastic; apparent Kd from the EC50
[5] = molecular target: T1, recombinant soluble human KIT …; test: SPR (Biacore 3000), scFv-Fc captured by anti-human Fc, KIT-ECD as analyte, Langmuir 1:1 fit; intrinsic affinity
[6] = molecular target: T1, recombinant soluble human KIT …; test: SPR (BIACORE 3000), scFv-Fc captured on anti-human IgG (Fc), KIT-ECD as analyte, 1:1 Langmuir fit [panel B]

| EC50 [1] | EC50 [2] | koff [3] | Kd [4] | Kd [5] | Ka [6] | Kd [6] | Binder |
| --- | --- | --- | --- | --- | --- | --- | --- |
| 0.6 nM | 0.067 µg/mL | 0.00563 s⁻¹ | 0.61 nM | 173 nM | 5.79e+06 M⁻¹ |  | 2D1-Fc (bivalent scFv-Fc of anti-KIT scFv 2D1) (Fc fusion, human, domain: hinge domain and the 2 constant domains; also called 2D1 scFv-Fc; 2D1-scFv-Fc) MAQVKLQESGGGLVQPGGSLRLSCAASGFTFDSYAMSWVRQAPGKGLEWVSYITSSSSTIYYVDSVKGRFTISRDNAKNSLYLQMNSLRDEDTAVYYCARLRNSEGYWYFDLWGRGTLVTVSSGGGGSGGGGSGGGGSQSALTQDPAVSVALGQTVRITCQGDSLRSYFASWYQQKPGQAPLLVMYGQNIRPSGIPDRFSGSSSGNSASLTITGAQAEDEADYYCNSRDSSYNHWVFGGGTKLTVLG[human IgG1 Fc not spelt out] |
|  | 0.24 µg/mL | 0.00521 s⁻¹ | 2.18 nM | 66 nM | 1.5e+07 M⁻¹ | 66.7 nM | 3G1-Fc (bivalent scFv-Fc of anti-KIT scFv 3G1) (Fc fusion, human, domain: hinge domain and the 2 constant domains; also called 3G1 scFv-Fc; 3G1-scFv-Fc) MAQVQLVESWGGVAQPGRSLRLSCAASGFTFSSFAMHWVRQAPGKGLEWVAVTSYDGSNEYYADSVKGRFTISRDNSKNTLYLQMNSLRAEDTAVYYCAKAMVRGVTFGDLDYWGQGTLVTVSSGGGGSGGGGSGGGGSSELTQDPAVSVALGQTVRITCQGDSLRSYYASWYQQKPEQAPVLVIYGENSRPSGIPDRFSGSSSGNTASLTITGAQAEDEADYYCNSRDSSGTHLRVFGGGTKLTVLG[human IgG1 Fc not spelt out] |
